# Data: PubChem BioAssay AID1996
# Details: buffer; pH 7.4; 200.0 µM
row,SMILES,solubility kinetic
1,Cc1cccc(NC(=O)COC(=O)C2C3CC4OC(=O)C2C4C3)c1C (stereo not drawn),> 51.5 µg/mL
2,COCCNC(=O)[C@H]1N2C(=O)c3ccccc3C2SC1(C)C (stereo partly drawn),> 48.1 µg/mL
3,OCc1cnc(SCc2ccccc2)n1Cc1ccccc1,46.3 µg/mL
4,CCCC(C)NC(=O)c1cccc(Oc2ccccc2)c1 (stereo not drawn),12.5 µg/mL
5,O=C(Nc1cccc(F)c1)c1ccc2c(c1)OCCO2,14 µg/mL
6,Cc1ccc(S(=O)(=O)N2CCN(c3ncnc4ccccc34)CC2)cc1,0.8 µg/mL
7,CN1C(=O)/C(=C/C=C/c2ccco2)C(=O)NC1=S,21.1 µg/mL
8,C/C(=N/OC(=O)c1ccccc1)c1oc(C)nc1C,28.2 µg/mL
